In paper PMC9911399, “Two distinct binding modes provide the RNA-binding protein RbFox with extraordinary sequence specificity”:
Numbering of substitutions follows the chain as printed; changes in the protein carry UniProt numbers. This is one part of the list.

T1: RBFOX1 RRM (Homo sapiens, UniProt Q9NWB1 109-208)
T1 sequence: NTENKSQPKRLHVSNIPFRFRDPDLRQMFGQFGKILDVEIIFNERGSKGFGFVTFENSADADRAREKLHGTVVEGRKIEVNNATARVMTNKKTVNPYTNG

B1: GGUGGUU (DNA:RNA)
RNA: GGGAGACCGGAAUUCAGAUUGUCCGGUGGUUUUAAAUCCCGUCGUAGCCACCA
DNA 1: CAATCTGAATTCCGGTCTCCC
DNA 2: TGGTGGCTACGACGGGATT
B2: UUCAAUC (DNA:RNA)
RNA: B1 RNA with G25U, G26U, U27C, G28A, G29A, U31C
DNA 1: CAATCTGAATTCCGGTCTCCC
DNA 2: TGGTGGCTACGACGGGATT
B3: AAACAAA (DNA:RNA)
RNA: GGGAGACCGGAAUUCAGAUUGUCCAAACAAAUUAAAUCCCGUCGUAGCCACCA
DNA 1: CAATCTGAATTCCGGTCTCCC
DNA 2: TGGTGGCTACGACGGGATT
B4: CAUAGUU (DNA:RNA)
RNA: B1 RNA with G25C, G26A, G28A
DNA 1: CAATCTGAATTCCGGTCTCCC
DNA 2: TGGTGGCTACGACGGGATT
B5: CUCACAC (DNA:RNA)
RNA: B3 RNA with A25C, A26U, A27C, C28A, A29C, A31C
DNA 1: CAATCTGAATTCCGGTCTCCC
DNA 2: TGGTGGCTACGACGGGATT
B6: GAGACGU (DNA:RNA)
RNA: B1 RNA with G26A, U27G, G28A, G29C, U30G
DNA 1: CAATCTGAATTCCGGTCTCCC
DNA 2: TGGTGGCTACGACGGGATT
B7: AUGUCCC (DNA:RNA)
RNA: B3 RNA with A26U, A27G, C28U, A29C, A30C, A31C
DNA 1: CAATCTGAATTCCGGTCTCCC
DNA 2: TGGTGGCTACGACGGGATT
B8: UCGGCUU (DNA:RNA)
RNA: B1 RNA with G25U, G26C, U27G, G29C
DNA 1: CAATCTGAATTCCGGTCTCCC
DNA 2: TGGTGGCTACGACGGGATT
B9: UCUACUC (DNA:RNA)
RNA: B1 RNA with G25U, G26C, G28A, G29C, U31C
DNA 1: CAATCTGAATTCCGGTCTCCC
DNA 2: TGGTGGCTACGACGGGATT
B10: GUUCAAU (DNA:RNA)
RNA: B3 RNA with A25G, A26U, A27U, A31U
DNA 1: CAATCTGAATTCCGGTCTCCC
DNA 2: TGGTGGCTACGACGGGATT
B11: UUGACUG (DNA:RNA)
RNA: B1 RNA with G25U, G26U, U27G, G28A, G29C, U31G
DNA 1: CAATCTGAATTCCGGTCTCCC
DNA 2: TGGTGGCTACGACGGGATT
B12: UUUACUG (DNA:RNA)
RNA: B1 RNA with G25U, G26U, G28A, G29C, U31G
DNA 1: CAATCTGAATTCCGGTCTCCC
DNA 2: TGGTGGCTACGACGGGATT
B13: AUAUCAA (DNA:RNA)
RNA: B3 RNA with A26U, C28U, A29C
DNA 1: CAATCTGAATTCCGGTCTCCC
DNA 2: TGGTGGCTACGACGGGATT
B14: CAGUGUC (DNA:RNA)
RNA: B1 RNA with G25C, G26A, U27G, G28U, U31C
DNA 1: CAATCTGAATTCCGGTCTCCC
DNA 2: TGGTGGCTACGACGGGATT
B15: AGCUUGU (DNA:RNA)
RNA: B1 RNA with G25A, U27C, G28U, G29U, U30G
DNA 1: CAATCTGAATTCCGGTCTCCC
DNA 2: TGGTGGCTACGACGGGATT
B16: UCUUCUU (DNA:RNA)
RNA: B1 RNA with G25U, G26C, G28U, G29C
DNA 1: CAATCTGAATTCCGGTCTCCC
DNA 2: TGGTGGCTACGACGGGATT
B17: GGCUGGU (DNA:RNA)
RNA: B1 RNA with U27C, G28U, U30G
DNA 1: CAATCTGAATTCCGGTCTCCC
DNA 2: TGGTGGCTACGACGGGATT
B18: GUUAGCG (DNA:RNA)
RNA: B1 RNA with G26U, G28A, U30C, U31G
DNA 1: CAATCTGAATTCCGGTCTCCC
DNA 2: TGGTGGCTACGACGGGATT
B19: CCAGAGC (DNA:RNA)
RNA: B3 RNA with A25C, A26C, C28G, A30G, A31C
DNA 1: CAATCTGAATTCCGGTCTCCC
DNA 2: TGGTGGCTACGACGGGATT
B20: UUGGUAC (DNA:RNA)
RNA: B3 RNA with A25U, A26U, A27G, C28G, A29U, A31C
DNA 1: CAATCTGAATTCCGGTCTCCC
DNA 2: TGGTGGCTACGACGGGATT

molecular target: T1, RBFOX1 RRM; test: EMSA; HiTS-Eq, 1 nM pool, 10 min; buffer printed only for the single-RNA assays: 10 mM Tris pH 7.5, 150 mM NaCl, 3.4 mM EDTA, 0.001% NP-40, 30 C; conditions: tags: His6 N-terminal (pET28a); label: 5' 32P
Procedure, shortened: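 Purified wild-type or mutant RbFox RRM at increasing concentrations was equilibrated with 1 nM of 5′-radiolabelled RNA carrying 7 randomized nucleotides for 10 min in 50 µL. Unbound RNA was separated by 8% native PAGE and sequenced. Relative association constants came from read-count changes of each RNA species compared with the control reaction, normalised to the cognate motif.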

Binder	binding signal
B1	0.0209 KA relative to UGCAUGU
B2	0.00156 KA relative to UGCAUGU
B3	0.00172 KA relative to UGCAUGU
B4	0.00395 KA relative to UGCAUGU
B5	0.000557 KA relative to UGCAUGU
B6	0.00788 KA relative to UGCAUGU
B7	0.00671 KA relative to UGCAUGU
B8	0.0185 KA relative to UGCAUGU
B9	0.0038 KA relative to UGCAUGU
B10	0.00782 KA relative to UGCAUGU
B11	0.0306 KA relative to UGCAUGU
B12	0.0136 KA relative to UGCAUGU
B13	0.00125 KA relative to UGCAUGU
B14	0.00846 KA relative to UGCAUGU
B15	0.023 KA relative to UGCAUGU
B16	0.00872 KA relative to UGCAUGU
B17	0.0324 KA relative to UGCAUGU
B18	0.0124 KA relative to UGCAUGU
B19	0.00442 KA relative to UGCAUGU
B20	0.0204 KA relative to UGCAUGU
